Measured values as given in the supplement of paper PMC9151546.
Single values are uncertain, as repeats are few or missing.

Tests used:
[1] = test system: CHO-K1; assay: micronucleus frequency (% of nucleated events); higher = more micronuclei (genotoxic)
[2] = test system: CHO-K1; assay: hypodiploid nuclei frequency (% of nucleated events); higher = more hypodiploid events (aneugenic)
[3] = test system: CHO-K1; assay: relative survival (nuclei to bead ratio vs DMSO control) (% of vehicle control); higher = more surviving cells
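For hypodiploid nuclei frequency (% of nucleated events) in this document: hypodiploid nuclei gated on a flow cytometer with 488 nm excitation after SYTOX Green staining, cultures at 37 °C, positive controls vinblastine without S9 and cyclophosphamide with S9.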
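For micronucleus frequency (% of nucleated events) in this document: cells lysed with nuclei stained by SYTOX Green, then micronucleus-gated events counted against nucleated events by flow cytometry with 488 nm excitation.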
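For relative survival (nuclei to bead ratio vs DMSO control) in this document: Lysed-cell nuclei stained with SYTOX Green and counted against counting beads by flow cytometry at 488 nm excitation, with vinblastine (no S9) and cyclophosphamide (plus S9) as positive controls.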

CCCCC=O [Pentanal]
Conditions	hypodiploid nuclei frequency, [2] [%]	micronucleus frequency, [1] [%]	relative survival, [3]
concentration: 4.46 (µM), S9 metabolic activation: with S9, exposure time: 3-4 hours	0.3	1.9	148
concentration: 4.46 (µM), S9 metabolic activation: without S9, exposure time: 24 hours	0.76	2.84	101
concentration: 5.57 (µM), S9 metabolic activation: with S9, exposure time: 3-4 hours	0.24	1.9	159
concentration: 5.57 (µM), S9 metabolic activation: without S9, exposure time: 24 hours	0.62	2.12	91.4
concentration: 6.97 (µM), S9 metabolic activation: with S9, exposure time: 3-4 hours	0.28	1.88	146
concentration: 6.97 (µM), S9 metabolic activation: without S9, exposure time: 24 hours	0.6	1.82	115
concentration: 8.71 (µM), S9 metabolic activation: with S9, exposure time: 3-4 hours	0.42	2.08	138
concentration: 8.71 (µM), S9 metabolic activation: without S9, exposure time: 24 hours	0.6	2.04	101
concentration: 10.9 (µM), S9 metabolic activation: with S9, exposure time: 3-4 hours	0.32	2.04	120
concentration: 10.9 (µM), S9 metabolic activation: without S9, exposure time: 24 hours	0.62	3.12	96.3
concentration: 13.6 (µM), S9 metabolic activation: with S9, exposure time: 3-4 hours	0.32	2.16	128
concentration: 13.6 (µM), S9 metabolic activation: without S9, exposure time: 24 hours	0.54	1.56	111
concentration: 17 (µM), S9 metabolic activation: with S9, exposure time: 3-4 hours	0.38	1.7	117
concentration: 17 (µM), S9 metabolic activation: without S9, exposure time: 24 hours	0.74	2.08	85.8
concentration: 21.3 (µM), S9 metabolic activation: with S9, exposure time: 3-4 hours	0.22	1.5	103
concentration: 21.3 (µM), S9 metabolic activation: without S9, exposure time: 24 hours	0.86	2.34	95.8
concentration: 26.6 (µM), S9 metabolic activation: with S9, exposure time: 3-4 hours	0.4	2.5	148
concentration: 26.6 (µM), S9 metabolic activation: without S9, exposure time: 24 hours	0.56	2.66	118
concentration: 33.2 (µM), S9 metabolic activation: with S9, exposure time: 3-4 hours	0.4	1.88	133
concentration: 33.2 (µM), S9 metabolic activation: without S9, exposure time: 24 hours	0.6	2.28	112
concentration: 41.5 (µM), S9 metabolic activation: with S9, exposure time: 3-4 hours	0.28	1.44	112
concentration: 41.5 (µM), S9 metabolic activation: without S9, exposure time: 24 hours	0.44	2.3	94.4
concentration: 51.9 (µM), S9 metabolic activation: with S9, exposure time: 3-4 hours	0.3	1.22	118
concentration: 51.9 (µM), S9 metabolic activation: without S9, exposure time: 24 hours	0.94	2.46	106
concentration: 64.9 (µM), S9 metabolic activation: with S9, exposure time: 3-4 hours	0.22	1.56	128
concentration: 64.9 (µM), S9 metabolic activation: without S9, exposure time: 24 hours	0.66	2.34	107
concentration: 81.1 (µM), S9 metabolic activation: with S9, exposure time: 3-4 hours	0.18	0.98	106
concentration: 81.1 (µM), S9 metabolic activation: without S9, exposure time: 24 hours	0.78	2.94	107
concentration: 101 (µM), S9 metabolic activation: with S9, exposure time: 3-4 hours	0.14	0.9	109
concentration: 101 (µM), S9 metabolic activation: without S9, exposure time: 24 hours	0.96	3.66	117
concentration: 127 (µM), S9 metabolic activation: with S9, exposure time: 3-4 hours	0.22	1.24	97.7
concentration: 127 (µM), S9 metabolic activation: without S9, exposure time: 24 hours	0.9	2.52	96.3
concentration: 158 (µM), S9 metabolic activation: with S9, exposure time: 3-4 hours	0.12	1.06	90.7
concentration: 158 (µM), S9 metabolic activation: without S9, exposure time: 24 hours	0.88	2.88	91.8
concentration: 198 (µM), S9 metabolic activation: with S9, exposure time: 3-4 hours	0.48	2.46	103
concentration: 198 (µM), S9 metabolic activation: without S9, exposure time: 24 hours	1.4	2.16	89.3
